# From the supplement of paper PMC12230231
# Tested on: SIVsab (simian immunodeficiency virus of sabaeus monkeys), single-cycle GFP reporter, in CRFK cells
# Test: enrichment among infected cells over input (fold); higher = weaker restriction
# Details: library: human / rhesus combinations
# Procedure: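 Pools of CRFK cells expressing variants of the TRIM5α v1 loop were challenged with the single-cycle reporter, sorted by GFP and sequenced; mean of two replicates.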
row,Sequence,enrichment
1,"MASGILLNVKEEVTCPICLELLTEPLSLHCGHSFCQACITANHKKSMLYKEGERSCPVCRISYQPENIQPNRHVANIVEKLREVKLSPEEGQKVDHCARHGEKLLLFCQEDSKVICWLCERSQEHRGHHTFLMEEVAQEYHVKLQTALEMLRQKQQEAEKLEADIREEKASWKIQIDYDKTNVSADFEQLREILDWEESNELQNLEKEEEDILKSLTKSETEMVQQTQYMRELISELEHRLQGSMMDLLQGVDGIIKRIENMTLKKPKTFHKNQRRVFRAPDLKGMLDMFRELTDARRYWVDVTLAPNNISHAVIAEDKRQVSSRNPQIMYGARGTLYTFQTLTNFNYCTGVLGSQSITSGKHYWEVDVSKKSAWILGVCAGFQSDAMYNIEQNENYQPKYGYWVIGLQEGVKYSVFQDGSSHTPFAPFIVPLSVIICPDRVGVFVDYEACTVSFFNITNHGFLIYKFSQCSFSKPVFPYLNPRKCTVPMTLCSPSS [rhesus TRIM5α, 332-344 = GARGTLYTFQTLT]",1.79 ± 1.4
2,"MASGILLNVKEEVTCPICLELLTEPLSLHCGHSFCQACITANHKKSMLYKEGERSCPVCRISYQPENIQPNRHVANIVEKLREVKLSPEEGQKVDHCARHGEKLLLFCQEDSKVICWLCERSQEHRGHHTFLMEEVAQEYHVKLQTALEMLRQKQQEAEKLEADIREEKASWKIQIDYDKTNVSADFEQLREILDWEESNELQNLEKEEEDILKSLTKSETEMVQQTQYMRELISELEHRLQGSMMDLLQGVDGIIKRIENMTLKKPKTFHKNQRRVFRAPDLKGMLDMFRELTDARRYWVDVTLAPNNISHAVIAEDKRQVSSRNPQIMYGARGTLYTFQTFTNFNYCTGVLGSQSITSGKHYWEVDVSKKSAWILGVCAGFQSDAMYNIEQNENYQPKYGYWVIGLQEGVKYSVFQDGSSHTPFAPFIVPLSVIICPDRVGVFVDYEACTVSFFNITNHGFLIYKFSQCSFSKPVFPYLNPRKCTVPMTLCSPSS [rhesus TRIM5α, 332-344 = GARGTLYTFQTFT]",1.48 ± 0.32
3,"MASGILLNVKEEVTCPICLELLTEPLSLHCGHSFCQACITANHKKSMLYKEGERSCPVCRISYQPENIQPNRHVANIVEKLREVKLSPEEGQKVDHCARHGEKLLLFCQEDSKVICWLCERSQEHRGHHTFLMEEVAQEYHVKLQTALEMLRQKQQEAEKLEADIREEKASWKIQIDYDKTNVSADFEQLREILDWEESNELQNLEKEEEDILKSLTKSETEMVQQTQYMRELISELEHRLQGSMMDLLQGVDGIIKRIENMTLKKPKTFHKNQRRVFRAPDLKGMLDMFRELTDARRYWVDVTLAPNNISHAVIAEDKRQVSSRNPQIMYGARGTLYTFPSFVNFNYCTGVLGSQSITSGKHYWEVDVSKKSAWILGVCAGFQSDAMYNIEQNENYQPKYGYWVIGLQEGVKYSVFQDGSSHTPFAPFIVPLSVIICPDRVGVFVDYEACTVSFFNITNHGFLIYKFSQCSFSKPVFPYLNPRKCTVPMTLCSPSS [rhesus TRIM5α, 332-344 = GARGTLYTFPSFV]",1.21 ± 0.16
4,"MASGILLNVKEEVTCPICLELLTEPLSLHCGHSFCQACITANHKKSMLYKEGERSCPVCRISYQPENIQPNRHVANIVEKLREVKLSPEEGQKVDHCARHGEKLLLFCQEDSKVICWLCERSQEHRGHHTFLMEEVAQEYHVKLQTALEMLRQKQQEAEKLEADIREEKASWKIQIDYDKTNVSADFEQLREILDWEESNELQNLEKEEEDILKSLTKSETEMVQQTQYMRELISELEHRLQGSMMDLLQGVDGIIKRIENMTLKKPKTFHKNQRRVFRAPDLKGMLDMFRELTDARRYWVDVTLAPNNISHAVIAEDKRQVSSRNPQIMYGARGTRYTFPSFVNFNYCTGVLGSQSITSGKHYWEVDVSKKSAWILGVCAGFQSDAMYNIEQNENYQPKYGYWVIGLQEGVKYSVFQDGSSHTPFAPFIVPLSVIICPDRVGVFVDYEACTVSFFNITNHGFLIYKFSQCSFSKPVFPYLNPRKCTVPMTLCSPSS [rhesus TRIM5α, 332-344 = GARGTRYTFPSFV]",1.13 ± 0.47
5,"MASGILLNVKEEVTCPICLELLTEPLSLHCGHSFCQACITANHKKSMLYKEGERSCPVCRISYQPENIQPNRHVANIVEKLREVKLSPEEGQKVDHCARHGEKLLLFCQEDSKVICWLCERSQEHRGHHTFLMEEVAQEYHVKLQTALEMLRQKQQEAEKLEADIREEKASWKIQIDYDKTNVSADFEQLREILDWEESNELQNLEKEEEDILKSLTKSETEMVQQTQYMRELISELEHRLQGSMMDLLQGVDGIIKRIENMTLKKPKTFHKNQRRVFRAPDLKGMLDMFRELTDARRYWVDVTLAPNNISHAVIAEDKRQVSSRNPQIMYQAPGTRYTFQTFTNFNYCTGVLGSQSITSGKHYWEVDVSKKSAWILGVCAGFQSDAMYNIEQNENYQPKYGYWVIGLQEGVKYSVFQDGSSHTPFAPFIVPLSVIICPDRVGVFVDYEACTVSFFNITNHGFLIYKFSQCSFSKPVFPYLNPRKCTVPMTLCSPSS [rhesus TRIM5α, 332-344 = QAPGTRYTFQTFT]",1.17 ± 0.092
6,"MASGILLNVKEEVTCPICLELLTEPLSLHCGHSFCQACITANHKKSMLYKEGERSCPVCRISYQPENIQPNRHVANIVEKLREVKLSPEEGQKVDHCARHGEKLLLFCQEDSKVICWLCERSQEHRGHHTFLMEEVAQEYHVKLQTALEMLRQKQQEAEKLEADIREEKASWKIQIDYDKTNVSADFEQLREILDWEESNELQNLEKEEEDILKSLTKSETEMVQQTQYMRELISELEHRLQGSMMDLLQGVDGIIKRIENMTLKKPKTFHKNQRRVFRAPDLKGMLDMFRELTDARRYWVDVTLAPNNISHAVIAEDKRQVSSRNPQIMYGAPGTRYTFPTLVNFNYCTGVLGSQSITSGKHYWEVDVSKKSAWILGVCAGFQSDAMYNIEQNENYQPKYGYWVIGLQEGVKYSVFQDGSSHTPFAPFIVPLSVIICPDRVGVFVDYEACTVSFFNITNHGFLIYKFSQCSFSKPVFPYLNPRKCTVPMTLCSPSS [rhesus TRIM5α, 332-344 = GAPGTRYTFPTLV]",2.15 ± 0.3
7,"MASGILLNVKEEVTCPICLELLTEPLSLHCGHSFCQACITANHKKSMLYKEGERSCPVCRISYQPENIQPNRHVANIVEKLREVKLSPEEGQKVDHCARHGEKLLLFCQEDSKVICWLCERSQEHRGHHTFLMEEVAQEYHVKLQTALEMLRQKQQEAEKLEADIREEKASWKIQIDYDKTNVSADFEQLREILDWEESNELQNLEKEEEDILKSLTKSETEMVQQTQYMRELISELEHRLQGSMMDLLQGVDGIIKRIENMTLKKPKTFHKNQRRVFRAPDLKGMLDMFRELTDARRYWVDVTLAPNNISHAVIAEDKRQVSSRNPQIMYQARGTLYQSLTNFNYCTGVLGSQSITSGKHYWEVDVSKKSAWILGVCAGFQSDAMYNIEQNENYQPKYGYWVIGLQEGVKYSVFQDGSSHTPFAPFIVPLSVIICPDRVGVFVDYEACTVSFFNITNHGFLIYKFSQCSFSKPVFPYLNPRKCTVPMTLCSPSS [rhesus TRIM5α, 332-344 = QARGTLYQSLT]",0.225 ± 0.13
8,"MASGILLNVKEEVTCPICLELLTEPLSLHCGHSFCQACITANHKKSMLYKEGERSCPVCRISYQPENIQPNRHVANIVEKLREVKLSPEEGQKVDHCARHGEKLLLFCQEDSKVICWLCERSQEHRGHHTFLMEEVAQEYHVKLQTALEMLRQKQQEAEKLEADIREEKASWKIQIDYDKTNVSADFEQLREILDWEESNELQNLEKEEEDILKSLTKSETEMVQQTQYMRELISELEHRLQGSMMDLLQGVDGIIKRIENMTLKKPKTFHKNQRRVFRAPDLKGMLDMFRELTDARRYWVDVTLAPNNISHAVIAEDKRQVSSRNPQIMYQARGTRFTFQSLVNFNYCTGVLGSQSITSGKHYWEVDVSKKSAWILGVCAGFQSDAMYNIEQNENYQPKYGYWVIGLQEGVKYSVFQDGSSHTPFAPFIVPLSVIICPDRVGVFVDYEACTVSFFNITNHGFLIYKFSQCSFSKPVFPYLNPRKCTVPMTLCSPSS [rhesus TRIM5α, 332-344 = QARGTRFTFQSLV]",1.62 ± 0.89
9,"MASGILLNVKEEVTCPICLELLTEPLSLHCGHSFCQACITANHKKSMLYKEGERSCPVCRISYQPENIQPNRHVANIVEKLREVKLSPEEGQKVDHCARHGEKLLLFCQEDSKVICWLCERSQEHRGHHTFLMEEVAQEYHVKLQTALEMLRQKQQEAEKLEADIREEKASWKIQIDYDKTNVSADFEQLREILDWEESNELQNLEKEEEDILKSLTKSETEMVQQTQYMRELISELEHRLQGSMMDLLQGVDGIIKRIENMTLKKPKTFHKNQRRVFRAPDLKGMLDMFRELTDARRYWVDVTLAPNNISHAVIAEDKRQVSSRNPQIMYGARGTRFPSFTNFNYCTGVLGSQSITSGKHYWEVDVSKKSAWILGVCAGFQSDAMYNIEQNENYQPKYGYWVIGLQEGVKYSVFQDGSSHTPFAPFIVPLSVIICPDRVGVFVDYEACTVSFFNITNHGFLIYKFSQCSFSKPVFPYLNPRKCTVPMTLCSPSS [rhesus TRIM5α, 332-344 = GARGTRFPSFT]",0.718 ± 0.72
10,"MASGILLNVKEEVTCPICLELLTEPLSLHCGHSFCQACITANHKKSMLYKEGERSCPVCRISYQPENIQPNRHVANIVEKLREVKLSPEEGQKVDHCARHGEKLLLFCQEDSKVICWLCERSQEHRGHHTFLMEEVAQEYHVKLQTALEMLRQKQQEAEKLEADIREEKASWKIQIDYDKTNVSADFEQLREILDWEESNELQNLEKEEEDILKSLTKSETEMVQQTQYMRELISELEHRLQGSMMDLLQGVDGIIKRIENMTLKKPKTFHKNQRRVFRAPDLKGMLDMFRELTDARRYWVDVTLAPNNISHAVIAEDKRQVSSRNPQIMYQAPGTRYTFQSLTNFNYCTGVLGSQSITSGKHYWEVDVSKKSAWILGVCAGFQSDAMYNIEQNENYQPKYGYWVIGLQEGVKYSVFQDGSSHTPFAPFIVPLSVIICPDRVGVFVDYEACTVSFFNITNHGFLIYKFSQCSFSKPVFPYLNPRKCTVPMTLCSPSS [rhesus TRIM5α, 332-344 = QAPGTRYTFQSLT]",1.9 ± 0.51
11,"MASGILLNVKEEVTCPICLELLTEPLSLHCGHSFCQACITANHKKSMLYKEGERSCPVCRISYQPENIQPNRHVANIVEKLREVKLSPEEGQKVDHCARHGEKLLLFCQEDSKVICWLCERSQEHRGHHTFLMEEVAQEYHVKLQTALEMLRQKQQEAEKLEADIREEKASWKIQIDYDKTNVSADFEQLREILDWEESNELQNLEKEEEDILKSLTKSETEMVQQTQYMRELISELEHRLQGSMMDLLQGVDGIIKRIENMTLKKPKTFHKNQRRVFRAPDLKGMLDMFRELTDARRYWVDVTLAPNNISHAVIAEDKRQVSSRNPQIMYGAPGTRYQSLVNFNYCTGVLGSQSITSGKHYWEVDVSKKSAWILGVCAGFQSDAMYNIEQNENYQPKYGYWVIGLQEGVKYSVFQDGSSHTPFAPFIVPLSVIICPDRVGVFVDYEACTVSFFNITNHGFLIYKFSQCSFSKPVFPYLNPRKCTVPMTLCSPSS [rhesus TRIM5α, 332-344 = GAPGTRYQSLV]",2.52 ± 3
12,"MASGILLNVKEEVTCPICLELLTEPLSLHCGHSFCQACITANHKKSMLYKEGERSCPVCRISYQPENIQPNRHVANIVEKLREVKLSPEEGQKVDHCARHGEKLLLFCQEDSKVICWLCERSQEHRGHHTFLMEEVAQEYHVKLQTALEMLRQKQQEAEKLEADIREEKASWKIQIDYDKTNVSADFEQLREILDWEESNELQNLEKEEEDILKSLTKSETEMVQQTQYMRELISELEHRLQGSMMDLLQGVDGIIKRIENMTLKKPKTFHKNQRRVFRAPDLKGMLDMFRELTDARRYWVDVTLAPNNISHAVIAEDKRQVSSRNPQIMYGARGTRFTFQTFTNFNYCTGVLGSQSITSGKHYWEVDVSKKSAWILGVCAGFQSDAMYNIEQNENYQPKYGYWVIGLQEGVKYSVFQDGSSHTPFAPFIVPLSVIICPDRVGVFVDYEACTVSFFNITNHGFLIYKFSQCSFSKPVFPYLNPRKCTVPMTLCSPSS [rhesus TRIM5α, 332-344 = GARGTRFTFQTFT]",1.31 ± 0.2

# ± gives the standard deviation of the averaged measurements. Restriction of a single-cycle SIVsab GFP reporter by TRIM5α v1-loop variants in CRFK cells. Human variants: read share among cells still uninfected after two challenges over input, higher = gained restriction. Rhesus variants: share among infected cells over input, higher = lost restriction. Reporter dose not given per row. No active / inactive call per row; the paper calls a change when both replicates lie above its controls (mean + 2 SD of stop or wild-type variants, or the top frameshift score). Residues outside the varied loop are taken from Swiss-Prot. The paper reads the human single-substitution scores as noise; they and the rhesus combinations repeat poorly (rank correlation 0.3 to 0.4), indel scores repeat only for the top variants, rhesus substitutions well (0.9).
